This is an account of results in a collection of fitness landscapes (doi:10.1016/j.celrep.2020.107928).

The full ranking holds about 81,000 sequences; the median of “one-hybrid fitness for binding parS DNA” is about -0.17, and the highest 2% start at about 0.51. The list shows a part of the results.

First the molecules themselves.
B1: Caulobacter ParB omega fusion; a variant is named by its letters at X, in order, B8GW30 (parent)
chain: MESVVVGEPGMSEGRRGLGRGLSALLGEVDAAPAQAPGEQLGGSREAPIEILQRNPDQPRRTFREEDLEDLSNSIREKGVLQPILVRPSPDTAGEYQIVAGERAWRAAQRAGLKTVPIMVRELDDLAVLEIGIIENVQRADLNVLEEALSYKVLMEKFERTQENIAQTIGKSXSHVANXMRLLXLPDEVQSYLVSGELTAXHARAIAAAADPVALAKQIIEGGLSVRETEALARKAPNLSAGKSKGGRPPRVKDTDTQALESDLSSVLGLDVSIDHRGSTGTLTITYATLEQLDDLCNRLTRGI

Variants of B1 are the subject of this test. The experiment in a line: one-hybrid fitness for binding parS DNA (scaled: cognate 1, non-cognate 0); higher = stronger binding. The settings on record: with parS DNA site. The method, boiled down:
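On M9-minus-histidine containing 0.1 mM IPTG and 5 mM 3-AT, E. coli USO cells with a HIS3 reporter, site 19 bp from the promoter, grew 48 hours at 37°C to select Caulobacter ParB libraries randomised at four specificity codons. Plasmids from before and after were Illumina-sequenced, with three replicate libraries pooled and variants under 10 reads left out. Fitness is the log change in variant-to-wild-type read ratio, rescaled against cognate and non-cognate.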
Turning to ASGK, the “one-hybrid fitness for binding parS DNA” value is at most 0.2. The result for RIEY reads 0.338; that for VESV, 0.212; that for CSLY, at most 0.2.

As for EYRR, the “one-hybrid fitness for binding parS DNA” value was at most 0.2. In the case of RWSY, the “one-hybrid fitness for binding parS DNA” value worked out at 0.338. RAMS: the “one-hybrid fitness for binding parS DNA” value was determined as 1.02.

As to QGAD, the “one-hybrid fitness for binding parS DNA” value was at most 0.2. The result for GGQL reads at most 0.2. Take TYDW: the “one-hybrid fitness for binding parS DNA” value was at most 0.2. RLMC: the “one-hybrid fitness for binding parS DNA” value was 0.992. With HHNG, the “one-hybrid fitness for binding parS DNA” value is at most 0.2.

With DATT, the “one-hybrid fitness for binding parS DNA” value is at most 0.2. Consider RVAN, for which the “one-hybrid fitness for binding parS DNA” value came out at 0.452. As for TDMF, the “one-hybrid fitness for binding parS DNA” value is at most 0.2. As for TGYH, the “one-hybrid fitness for binding parS DNA” value was at most 0.2. Consider HGGG, for which the “one-hybrid fitness for binding parS DNA” value is at most 0.2. For FFLI, the “one-hybrid fitness for binding parS DNA” value is at most 0.2. In the case of SLRA, the “one-hybrid fitness for binding parS DNA” value is at most 0.2. Turning to ADDG, the “one-hybrid fitness for binding parS DNA” value is at most 0.2. For the variant AEKG, the “one-hybrid fitness for binding parS DNA” value is at most 0.2. Consider RNCA, for which the “one-hybrid fitness for binding parS DNA” value was 0.348.

With GWLP, the “one-hybrid fitness for binding parS DNA” value is at most 0.2. As to RSFK, the “one-hybrid fitness for binding parS DNA” value is at most 0.2. The result for GFMT reads at most 0.2; that for RWYT, 0.596; that for ARLR, at most 0.2. Take KVDN: the “one-hybrid fitness for binding parS DNA” value is at most 0.2. SVSC: the “one-hybrid fitness for binding parS DNA” value is at most 0.2.

Consider KQRS, for which the “one-hybrid fitness for binding parS DNA” value was at most 0.2. For YRSQ, the “one-hybrid fitness for binding parS DNA” value is at most 0.2.

Turning to PGLT, the “one-hybrid fitness for binding parS DNA” value is at most 0.2. With QNYC, the “one-hybrid fitness for binding parS DNA” value is at most 0.2. For the variant RAFW, the “one-hybrid fitness for binding parS DNA” value turned out to be 0.243. Take CKRK: the “one-hybrid fitness for binding parS DNA” value was at most 0.2. For DCCG, the “one-hybrid fitness for binding parS DNA” value was at most 0.2. In the case of RIQF, the “one-hybrid fitness for binding parS DNA” value came to 0.272. Turning to LLME, the “one-hybrid fitness for binding parS DNA” value was at most 0.2. Take TWHC: the “one-hybrid fitness for binding parS DNA” value was at most 0.2. The result for VQVG reads at most 0.2.

On to LREQ, for which the “one-hybrid fitness for binding parS DNA” value is at most 0.2. As for GVNR, the “one-hybrid fitness for binding parS DNA” value is at most 0.2. In the case of WRRR, the “one-hybrid fitness for binding parS DNA” value is at most 0.2. Turning to QERN, the “one-hybrid fitness for binding parS DNA” value is at most 0.2. Regarding RVEF, the “one-hybrid fitness for binding parS DNA” value was at most 0.2. As for CRQS, the figure is at most 0.2. The result for NFVR reads at most 0.2. GGCW: the “one-hybrid fitness for binding parS DNA” value is at most 0.2. Regarding CVMG, the “one-hybrid fitness for binding parS DNA” value was at most 0.2.

Take PMNV: the “one-hybrid fitness for binding parS DNA” value was at most 0.2. Consider KCSS, for which the “one-hybrid fitness for binding parS DNA” value was at most 0.2. In the case of ANRW, the “one-hybrid fitness for binding parS DNA” value is at most 0.2.

Take APSR: the “one-hybrid fitness for binding parS DNA” value is at most 0.2. LTPV: the “one-hybrid fitness for binding parS DNA” value is at most 0.2. On to LDDS, for which the “one-hybrid fitness for binding parS DNA” value is at most 0.2.

For the variant QVTL, the “one-hybrid fitness for binding parS DNA” value was at most 0.2. CATT: the “one-hybrid fitness for binding parS DNA” value was at most 0.2. With LLLA, the “one-hybrid fitness for binding parS DNA” value was at most 0.2. GTRS: the “one-hybrid fitness for binding parS DNA” value was at most 0.2. On to GFQC, for which the “one-hybrid fitness for binding parS DNA” value is at most 0.2.

As for FACG, the “one-hybrid fitness for binding parS DNA” value was at most 0.2. In the case of QNLC, the “one-hybrid fitness for binding parS DNA” value is at most 0.2. Turning to ELLH, the “one-hybrid fitness for binding parS DNA” value is at most 0.2. For the variant PQAC, the “one-hybrid fitness for binding parS DNA” value was at most 0.2. Consider HMPM, for which the “one-hybrid fitness for binding parS DNA” value was at most 0.2.

Take NKSS: the “one-hybrid fitness for binding parS DNA” value is at most 0.2. As for HAPE, the figure is at most 0.2; as for NCNP, at most 0.2. As to DPTS, the “one-hybrid fitness for binding parS DNA” value was at most 0.2. For MKSS, the “one-hybrid fitness for binding parS DNA” value is at most 0.2. As to NRNT, the “one-hybrid fitness for binding parS DNA” value was at most 0.2. For the variant VFGC, the “one-hybrid fitness for binding parS DNA” value was at most 0.2. For the variant GVQW, the “one-hybrid fitness for binding parS DNA” value is at most 0.2. Turning to WVTK, the “one-hybrid fitness for binding parS DNA” value was at most 0.2. On to TKRE, for which the “one-hybrid fitness for binding parS DNA” value was at most 0.2. For the variant VWGC, the “one-hybrid fitness for binding parS DNA” value was at most 0.2. Turning to QTKP, the “one-hybrid fitness for binding parS DNA” value is at most 0.2. As for STNR, the “one-hybrid fitness for binding parS DNA” value is at most 0.2.

TFCS: the “one-hybrid fitness for binding parS DNA” value is at most 0.2. In the case of QFAD, the “one-hybrid fitness for binding parS DNA” value was at most 0.2. In the case of KHHC, the “one-hybrid fitness for binding parS DNA” value is at most 0.2. For MNDG, the “one-hybrid fitness for binding parS DNA” value was at most 0.2. As for APWT, the “one-hybrid fitness for binding parS DNA” value was at most 0.2. With CAIN, the “one-hybrid fitness for binding parS DNA” value is at most 0.2. For the variant GRSF, the “one-hybrid fitness for binding parS DNA” value is at most 0.2. With VMSV, the “one-hybrid fitness for binding parS DNA” value is at most 0.2. Turning to RYYC, the “one-hybrid fitness for binding parS DNA” value is 0.975. Regarding QQTT, the “one-hybrid fitness for binding parS DNA” value is at most 0.2. As to WMNL, the “one-hybrid fitness for binding parS DNA” value was at most 0.2. Consider PFAM, for which the “one-hybrid fitness for binding parS DNA” value is at most 0.2. The result for DALY reads at most 0.2; that for DPEP, at most 0.2; that for CVGA, at most 0.2. The result for PDVT reads at most 0.2; that for RNEL, at most 0.2. For the variant TALG, the “one-hybrid fitness for binding parS DNA” value was at most 0.2. In the case of VMKG, the “one-hybrid fitness for binding parS DNA” value was at most 0.2. Consider MVYK, for which the “one-hybrid fitness for binding parS DNA” value is at most 0.2.

As for QLDK, the “one-hybrid fitness for binding parS DNA” value is at most 0.2. Take KSPS: the “one-hybrid fitness for binding parS DNA” value is at most 0.2.

As for LSEW, the “one-hybrid fitness for binding parS DNA” value was at most 0.2. In the case of SLNH, the “one-hybrid fitness for binding parS DNA” value was at most 0.2.

For LRKA, the “one-hybrid fitness for binding parS DNA” value was at most 0.2.

With EFIV, the “one-hybrid fitness for binding parS DNA” value was at most 0.2. The result for QQKH reads at most 0.2; that for SKSS, at most 0.2. The result for ACEG reads at most 0.2; that for HRLA, at most 0.2; that for PCRR, at most 0.2. As for NVQR, the “one-hybrid fitness for binding parS DNA” value was at most 0.2. Consider RMFS, for which the “one-hybrid fitness for binding parS DNA” value came to 1.07.

As for GESV, the “one-hybrid fitness for binding parS DNA” value was at most 0.2. The result for WCPM reads at most 0.2; that for TKFG, at most 0.2; that for LAAI, at most 0.2.

With GQIR, the “one-hybrid fitness for binding parS DNA” value is at most 0.2. Regarding VLCT, the “one-hybrid fitness for binding parS DNA” value was at most 0.2.

For QYQG, the “one-hybrid fitness for binding parS DNA” value is at most 0.2. The result for PSVD reads at most 0.2.

Take PMQL: the “one-hybrid fitness for binding parS DNA” value was at most 0.2. For the variant TRIA, the “one-hybrid fitness for binding parS DNA” value is at most 0.2. As for NTAN, the figure is at most 0.2. PRSE: the “one-hybrid fitness for binding parS DNA” value is at most 0.2.

For VLTL, the “one-hybrid fitness for binding parS DNA” value was at most 0.2.

Take NLMF: the “one-hybrid fitness for binding parS DNA” value is at most 0.2.

Regarding SITS, the “one-hybrid fitness for binding parS DNA” value is at most 0.2. For PNHV, the “one-hybrid fitness for binding parS DNA” value is at most 0.2. As for RDCG, the “one-hybrid fitness for binding parS DNA” value was at most 0.2. LFRS: the “one-hybrid fitness for binding parS DNA” value was at most 0.2. Regarding DKYG, the “one-hybrid fitness for binding parS DNA” value was at most 0.2.

As for REMR, the “one-hybrid fitness for binding parS DNA” value was at most 0.2. For ARQD, the “one-hybrid fitness for binding parS DNA” value is at most 0.2. The result for GAKA reads at most 0.2; that for KALS, at most 0.2. As for FDSH, the “one-hybrid fitness for binding parS DNA” value is at most 0.2. For the variant LYGF, the “one-hybrid fitness for binding parS DNA” value was at most 0.2.

With GCDG, the “one-hybrid fitness for binding parS DNA” value was at most 0.2. As for AVYN, the figure is at most 0.2; as for VQMT, at most 0.2; as for WKLT, at most 0.2. As to THGC, the “one-hybrid fitness for binding parS DNA” value was at most 0.2. Take FNMR: the “one-hybrid fitness for binding parS DNA” value was at most 0.2. The result for RPKM reads at most 0.2; that for VRCR, at most 0.2. As for QNKF, the “one-hybrid fitness for binding parS DNA” value is at most 0.2.

Turning to QILK, the “one-hybrid fitness for binding parS DNA” value was at most 0.2.

In the case of AIKF, the “one-hybrid fitness for binding parS DNA” value was at most 0.2.

With RMHQ, the “one-hybrid fitness for binding parS DNA” value is at most 0.2. The result for NSPY reads at most 0.2; that for RSQM, 0.33. With TTPW, the “one-hybrid fitness for binding parS DNA” value was at most 0.2. As for KARA, the figure is at most 0.2; as for RIII, at most 0.2.
